In the supplement of paper PMC12217912:
Some of the results follow. Sequences were assembled here from the parent chain. Inactive controls read about 0.05.

B1: TEV protease; numbered along this chain (parent)
chain: MGESLFKGPRDYNPISSSICHLTNESDGHTTSLYGIGFGPFIITNKHLFRRNNGTLVVQSLHGVFKVKDTTTLQQHLVDGRDMIIIRMPKDFPPFPQKLKFREPQREERICLVTTNFQTKSMSSMVSDTSCTFPSGDGIFWKHWIQTKDGQCGSPLVSTRDGFIVGIHSASNFTNTNNYFTSVPKNFMELLTNQEAQQWVSGWRLNADSVLWGGHKVFMVKPEEPFQPVKEATQL

Variants of: B1
Test: raw area under fraction-flipped curve 0-4 h after induction (AUC4h, not background-subtracted), DNA-recorder readout of cleavage of the substrate (dimensionless); higher = more cleavage of the substrate by the protease variant
Settings: temperature: 34 °C; time window: 0-4 h after rhamnose induction
Method: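 In vivo DNA recorder in E. coli TOP10(DE3) ΔrhaA at 34 °C. Each TEVp single-site mutant (parent TEVp 0) is paired with a single-site variant of the 7-mer TEVs (canonical ENLYFQ|S). The substrate sits between flexible linkers in a Bxb1-sfGFP-TEVs-SsrA fusion, so cleavage stabilises Bxb1 and speeds flipping of a recombination array, read by NGS. The value is the raw area under the fraction-flipped curve over 0-4 h after rhamnose induction (AUC4h), with ≥20 reads per time point. It is not background-subtracted; inactive controls average about 0.047.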
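Also: Bxb1 expression induced with 0.2% (w/v) L-rhamnose at OD600 near 0.5, cultures sampled hourly, flipped fraction per protease–substrate barcode pair counted by paired-end Illumina sequencing.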

Variant	area with substrate ENLYFAS	area with substrate ENLYFCS	area with substrate ENLYFES	area with substrate ENLYFFS	area with substrate ENLYFGS	area with substrate ENLYFHS	area with substrate ENLYFIS	area with substrate ENLYFKS	area with substrate ENLYFMS	area with substrate ENLYFNS	area with substrate ENLYFRS	area with substrate ENLYFSS	area with substrate ENLYFTS	area with substrate ENLYFVS	area with substrate ENLYFWS	area with substrate ENLYFDS	area with substrate ENLYFPS	area with substrate ENLYFYS	area with substrate ENLYFLS
K148C	0.0642	0.0553	0.0513	0.0635	0.0595	0.0629	0.0528	0.0537	0.076	0.0588	0.0475	0.0637	0.0611	0.057	0.0476				
D149T	0.0672		0.078	0.086	0.0684	0.0206	0.0585		0.061	0.0529	0.051	0.0497	0.0547		0.0585	0.0664	0.0465	0.0619	
K142W	0.0637		0.0687	0.0704	0.0455		0.0319	0.0729	0.0482		0.0529	0.0468				0.0556	0.0628	0.0591	0.0585
I139V	0.0685	0.065	0.0705	0.0658			0.0633	0.0505	0.0748	0.0692	0.0532	0.0509	0.0664		0.056	0.0666	0.0451	0.0624	0.0593
S123N	0.0615	0.0637		0.0651	0.0282	0.0652	0.0519	0.0671	0.0644	0.0686	0.0646	0.0508	0.0627	0.0691	0.0472	0.0496	0.0643	0.0548	0.0496
T147R	0.054	0.0583	0.058	0.0638			0.0639	0.0581	0.0542		0.0561	0.0611	0.0538	0.06	0.054		0.0576		0.0466
T147M	0.0479	0.0544	0.0546	0.0839		0.049	0.0663		0.065		0.0605			0.0621	0.0473		0.0668	0.0895	
F140L	0.0476	0.055	0.0546	0.0732		0.0529	0.0572	0.0631	0.0499	0.0707		0.0603	0.0576		0.0545		0.0294	0.0469	
F140V	0.0507	0.0532	0.0614	0.0766	0.0552	0.0535	0.0561	0.0545	0.0492	0.0608	0.0561	0.0619	0.0446	0.0358	0.0528	0.0648	0.0617	0.0543	
M122V	0.0534	0.0594	0.057	0.0713		0.0468	0.0584		0.0671				0.059	0.0575			0.0514	0.0693	
M122I	0.064		0.0598		0.0832	0.0904	0.0497		0.0707		0.0437		0.0689		0.0545	0.0539	0.0657	0.0726	0.0634
G136D	0.0484	0.0652	0.054	0.0632		0.0755	0.0567	0.0711	0.0672	0.0475		0.0643	0.052	0.0596	0.0594	0.0574	0.0066	0.0698	
